Measured values from PubChem BioAssay AID485344 (National Center for Advancing Translational Sciences (NCATS), 2010).
Out of some 340,000 compounds screened, about 6,900 (2%) were called active. No stated cut-off is given here; in the data, active means inhibition above about 30%; inactive means below that, where a call was filed. Only a part is listed here, and it is no random draw. Where no call is shown, the source filed none.

target: D(2) dopamine receptor (Homo sapiens) (UniProt P14416); assay: HTS Assay for Allosteric Antagonists of the Human D2 Dopamine Receptor: Primary Screen for Antagonists; conditions: HEK293 TREx D2 cells, calcium flux, dopamine EC80; at 10 µM; stronger effect = higher value; further: 0% is about no effect
UniProt P14416, sequence (P14416 whole entry, looked up): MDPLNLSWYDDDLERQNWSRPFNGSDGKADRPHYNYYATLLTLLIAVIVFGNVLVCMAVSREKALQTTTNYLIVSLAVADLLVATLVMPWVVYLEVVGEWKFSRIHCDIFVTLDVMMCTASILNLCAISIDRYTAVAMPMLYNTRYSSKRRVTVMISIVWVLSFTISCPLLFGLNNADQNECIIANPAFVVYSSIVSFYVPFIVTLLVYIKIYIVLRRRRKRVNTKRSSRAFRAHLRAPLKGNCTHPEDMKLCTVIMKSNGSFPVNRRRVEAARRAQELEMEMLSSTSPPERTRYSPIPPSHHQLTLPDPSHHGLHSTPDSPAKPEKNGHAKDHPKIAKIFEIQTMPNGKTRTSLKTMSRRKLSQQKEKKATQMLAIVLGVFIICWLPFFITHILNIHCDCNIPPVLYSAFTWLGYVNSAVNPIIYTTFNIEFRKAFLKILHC
Method in brief: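 Calcium mobilization kinetics were recorded at 1 s intervals in tetracycline-induced HEK293 T-REx D2 cells, first for 180 s after compound addition and then 180 s after EC80 dopamine.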

**Q.** Which inhibition does the source give for Cc1ccc(C)c(Cn2c(=O)n(CC3CCC(C(=O)N4CCOCC4)CC3)c(=O)c3sccc32)c1 (stereo not given) here?
**A.** -1.6%

**Q.** COc1cccc(-c2nnc(SCC(=O)N3CCCCC3)o2)c1 was tested. Which inhibition did it give?
**A.** 18.2%

**Q.** How did the inhibition turn out when CCOC(=O)c1c(S(=O)(=O)N2CCCC(C(=O)NCc3ccc(F)cc3)C2)c(C)n(CC)c1C (stereo not given) was run?
**A.** -3.48%

**Q.** For O=C(CCCCn1c(=O)[nH]c2ccsc2c1=O)N1CCN(c2cccc(C(F)(F)F)c2)CC1, which inhibition is on record?
**A.** -8.09%

**Q.** CC(=O)N1CCc2c(sc3c2c(=O)n(-c2cccc(Cl)c2C)c(=O)n3Cc2ccccc2C)C1 was tested. Which inhibition did it give?
**A.** 0.93%

**Q.** With Cc1ccccc1C(=O)Nc1cccc(OCc2cc(=O)n3c4c(sc3n2)CCCC4)c1 as the compound, how does the inhibition read?
**A.** -0.181%

**Q.** How did the inhibition turn out when COc1ccc(C(=O)c2ccc(N3CCN(C4CC(=O)NC4=O)CC3)cc2)cc1F (stereo not given) was run?
**A.** active: 34%

**Q.** How did the inhibition turn out when CC1CCN(S(=O)(=O)c2ccc3c(c2)N(CC(=O)NCCN(C)C)C(=O)CO3)CC1 was run?
**A.** -1.64%

**Q.** Cc1ccc(C)c(CNS(=O)(=O)c2ccc3c(c2)C(C)(C)C(=O)N3C)c1 was tested. Which inhibition did it give?
**A.** -1.78%

**Q.** For COc1ccc2c(c1)c1c(c(=O)n(-c3ccc(C)cc3)c(=O)n1CC(=O)c1ccc(Cl)cc1)n2C, which inhibition is on record?
**A.** -3.02%

**Q.** Which inhibition does the source give for COc1ccc(NC(=O)Cn2cc(S(=O)(=O)N3CCC(C)CC3)c3ccccc3c2=O)cc1Cl here?
**A.** -5.04%

**Q.** For Cc1ccc(C)c(N2CCN(C(=O)c3ccc(-c4nc(COc5ccccc5)c(C)o4)cc3)CC2)c1, which inhibition is on record?
**A.** -1.18%

**Q.** For CCOc1ccc(NC(=O)c2ccc3[nH]c(C)cc(=O)c3c2)cc1, which inhibition is on record?
**A.** 6.5%

**Q.** CCOC(=O)c1c(-c2ccc(OC)cc2)cn2ccccc12 was tested. Which inhibition did it give?
**A.** active: 62%

**Q.** With COc1ccc2c(CNCCc3ccccc3C)c(C(=O)O)n(Cc3ccccc3C)c2c1 as the compound, how does the inhibition read?
**A.** 10.3%

**Q.** How did the inhibition turn out when CCOc1ccc(NC(=O)c2cnn(-c3ccccc3)c2-n2cccc2)cc1 was run?
**A.** 6.18%

**Q.** With CCN(CC)C(=O)CSc1nc2c(c(=O)n(C)c(=O)n2C)n1Cc1ccccc1 as the compound, how does the inhibition read?
**A.** -1.65%

**Q.** How did the inhibition turn out when N#Cc1c(-c2ccccc2)cc(-c2ccccc2)nc1SCC(O)CS(=O)(=O)Cc1ccccc1 (stereo not given) was run?
**A.** 10.4%

**Q.** For O=C(Cn1cc(SCc2ccc(F)cc2)c2ccccc21)N1CCCCCC1, which inhibition is on record?
**A.** -2.35%

**Q.** For O=C(CCc1ccccc1)N(Cc1cccnc1)c1nc2ccc(F)cc2s1, which inhibition is on record?
**A.** 2.13%

**Q.** CCOCCCNC(=O)C1CCCN(c2ncnc3onc(C)c23)C1 (stereo not given) was tested. Which inhibition did it give?
**A.** 7.14%

**Q.** For CCc1cc(=O)oc2cc(OCC(=O)NCCCn3ccnc3)ccc12, which inhibition is on record?
**A.** active: 37.4%

**Q.** Which inhibition does the source give for CCOC(=O)C1CCCN(C(=O)c2ccccc2NC(=O)c2nsc3ccccc23)C1 (stereo not given) here?
**A.** -18.3%

**Q.** With Cc1ccccc1Cn1nnc2c(=O)[nH]c(C3CCCN(C(=O)c4ccc(C(C)(C)C)cc4)C3)nc21 (stereo not given) as the compound, how does the inhibition read?
**A.** 1.5%

**Q.** O=C(c1ccc2c(c1)N(Cc1cccc(Cl)c1)C(=O)c1ccccc1S2(=O)=O)N1CCCC1 was tested. Which inhibition did it give?
**A.** -2.75%

**Q.** Which inhibition does the source give for Cc1ccc(NC(=O)CN(C)C(=O)COc2cc(F)ccc2[N+](=O)[O-])cc1 here?
**A.** active: 61.9%

**Q.** COc1ccc(OC)c(CCNC(=O)c2cnn(-c3ccccc3)c2-n2cccc2)c1 was tested. Which inhibition did it give?
**A.** 1.35%

**Q.** With O=C(CCS(=O)(=O)c1cc(Br)cc2c1N(C(=O)C1CC1)CC2)N1CCN(c2ccccc2)CC1 as the compound, how does the inhibition read?
**A.** -25.1%

**Q.** How did the inhibition turn out when COc1ccc(CCNCC(=O)Nc2c(C)cc(C)cc2C)cc1OC was run?
**A.** active: 44.9%

**Q.** How did the inhibition turn out when CCc1ccc(NC(=O)Cn2c(=O)n(Cc3ccc(C)cc3)c(=O)c3cccnc32)cc1 was run?
**A.** -0.628%

**Q.** For Cc1ccccc1C(=O)Nc1nnc(S(=O)(=O)N2CCc3ccccc32)s1, which inhibition is on record?
**A.** -20.2%

**Q.** CC(=O)N1CCCc2cc(S(=O)(=O)N3CCC(C(=O)N(C)C4CCCCC4)CC3)ccc21 was tested. Which inhibition did it give?
**A.** -7.29%

**Q.** For CCOC(=O)c1ccccc1NC(=O)N1CCCn2nc(C)cc21, which inhibition is on record?
**A.** 6.11%

**Q.** Cc1cc(C)cc(N2C(=O)CSC23C(=O)N(CC(=O)NC2CCCCC2)c2ccccc23)c1 (stereo not given) was tested. Which inhibition did it give?
**A.** 1.04%

**Q.** How did the inhibition turn out when COc1ccc(C(=O)Nc2cccc(OCc3cc(=O)n4c5c(sc4n3)CCCC5)c2)cc1OC was run?
**A.** 4.16%

**Q.** With CCOC(=O)N1CCN(c2ncc3c(n2)CC(c2ccc(OC)c(OC)c2)CC3=O)CC1 (stereo not given) as the compound, how does the inhibition read?
**A.** 8.35%

**Q.** For O=C1c2ccccc2NC(c2ccco2)N1NS(=O)(=O)c1ccccc1 (stereo not given), which inhibition is on record?
**A.** active: 32.9%

**Q.** Cc1noc(/C=C/c2ccccc2F)c1S(=O)(=O)N1CCC(C(=O)NCc2ccco2)CC1 was tested. Which inhibition did it give?
**A.** 19.2%

**Q.** CCCCOc1ccccc1NC(=O)CC1Sc2ccccc2NC1=O (stereo not given) was tested. Which inhibition did it give?
**A.** -17.4%

**Q.** COc1ccccc1Cc1nc2ccccc2nc1SCC(=O)N1CCCCC1 was tested. Which inhibition did it give?
**A.** 0.666%

**Q.** With COc1ccc(NC(=O)c2sc3nc4n(c(=O)c3c2C)CCC4)c(OC)c1 as the compound, how does the inhibition read?
**A.** -7.77%

**Q.** How did the inhibition turn out when O=C(N/N=C/C(Br)=C\c1ccccc1)c1ccc2nc[nH]c2c1 was run?
**A.** active: 34.4%

**Q.** With COc1cc2c(C(=O)N3CCN(c4ccc(F)cc4)CC3)cn(CC(C)C)c(=O)c2cc1OC as the compound, how does the inhibition read?
**A.** -6.8%

**Q.** Which inhibition does the source give for CCOc1ccccc1NC(=O)C1CCCN(S(=O)(=O)c2cccs2)C1 (stereo not given) here?
**A.** 10.8%

**Q.** Cc1ccc(NS(=O)(=O)c2ccc3nc(-c4ccccc4)[nH]c3c2)cc1Cl was tested. Which inhibition did it give?
**A.** 9.51%

**Q.** COc1ccc(Br)cc1CNC(=O)C1CCN(c2nnc(-n3cccc3CNc3ccc(C)cc3)s2)CC1 was tested. Which inhibition did it give?
**A.** 3.79%

**Q.** How did the inhibition turn out when CC(Cc1ccc(Cl)cc1)N1CCC(n2nccc2NC(=O)C2CCCC2)CC1 (stereo not given) was run?
**A.** active: 31.1%

**Q.** CSc1nn(CC(=O)Nc2ccc(C)cc2C)c(N)c1S(=O)(=O)c1ccc(Cl)cc1 was tested. Which inhibition did it give?
**A.** 6.25%

**Q.** CCn1cc(C(=O)N(C)c2cc(C)ccc2C)c2cc(OC)c(OC)cc2c1=O was tested. Which inhibition did it give?
**A.** 11.1%

**Q.** O=S(=O)(Nc1nc2n(n1)C(c1ccc(F)cc1)C=C(c1ccc(Cl)cc1)N2)c1ccccc1 (stereo not given) was tested. Which inhibition did it give?
**A.** 15.2%

**Q.** Cc1ccc(-c2cn3c(n2)sc2cc(C(=O)NC4CCCCCC4)ccc23)cc1 was tested. Which inhibition did it give?
**A.** 8.44%

**Q.** For COCCCNC(=O)C1CCN(Cc2cc3ccccc3n2Cc2cccc(Cl)c2)CC1, which inhibition is on record?
**A.** 3.58%

**Q.** For Cc1cc(C)n2nc(CNC(=O)c3cccc(N(C)C)c3)nc2n1, which inhibition is on record?
**A.** 22.4%

**Q.** Which inhibition does the source give for Cc1noc2ncnc(NCCc3ccccc3)c12 here?
**A.** -6.4%

**Q.** Which inhibition does the source give for CCC12CN3CC(CC)(CN(C1)C3c1c[nH]c3ccccc13)C2=O (stereo not given) here?
**A.** -6.28%

**Q.** For COc1ccc(N2CCN(C(=O)c3ccc4c(c3)CCN4S(=O)(=O)c3ccccc3)CC2)cc1, which inhibition is on record?
**A.** 14.8%

**Q.** Which inhibition does the source give for CC(NCc1ccc2c(c1)n(C)c(=O)n2C)c1ccccc1 (stereo not given) here?
**A.** -13.9%

**Q.** Which inhibition does the source give for COc1cc(NC(=O)CSc2cc(=O)n(C)c3ccccc23)cc(OC)c1OC here?
**A.** -16.1%

**Q.** For CCOc1ccc(NC(=O)CCc2c(C)nc3c4c(C)cc(C)nc4nn3c2C)cc1, which inhibition is on record?
**A.** -11.5%

**Q.** CN(Cc1ccccc1)c1ccc2cc(S(=O)(=O)N3CCCCC3)ccc2n1 was tested. Which inhibition did it give?
**A.** -0.932%
